In PubChem BioAssay AID1347073 (National Center for Advancing Translational Sciences (NCATS), 2019):
Among all 45,000 compounds or so, about 200 (0.44%) were called active. Inconclusive results (about 7%) are left out. Calls follow the shape of the dose curve; as a rule, active = well fitted activation curve with a large enough effect; inconclusive = small, poorly fitted or top-dose-only effect; inactive = no such curve, though single readings can be large or run the other way. The list shows a part of the results.

experiment: qHTS of TDP-43 Inhibitors: NCGC Sytravon Library Screen; settings: yeast TDP-43 toxicity rescue, BacTiter-Glo growth, 24 h; series mostly up to 46.1 µM; growth rescue (activation): at the top concentration; also: nearly all actives have a fitted effect of over 55% in size; as to growth rescue (activation): 0% is about no effect
Procedure, shortened: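 TDP-43-expressing yeast, pregrown in raffinose, seeded at OD600 0.02 in galactose medium with compound for 24 hr at 30 deg C. Growth read by BacTiter-Glo luminescence, so rescue of toxicity appears as activation.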
Potency is read from the fitted curve at half-maximal effect.

Row | Structure (SMILES) | growth rescue (activation) | Potency
1 | CN(C)S(=O)(=O)c1cccc(COc2ncnc3c(Cl)cc(Cl)cc23)c1 | inactive: -7.84% | 
2 | Cc1nnc(Nc2ccc(Cl)c(C(F)(F)F)c2)[nH]c1=O | inactive: -22.2% | 
3 | O=C(Nc1ccc(Cl)cc1)Nc1ccc(N2CCCC2)c(S(=O)(=O)Nc2ccccc2Cl)c1 | inactive: 8.63% | 
4 | COc1cc(C(=O)Nc2cc(C)ccc2C)ccc1OCc1c(C)noc1C | inactive: -11.7% | 
5 | COc1cccc(C(=O)OC2CCN(C)CC2)c1 | inactive: -5.06% | 
6 | COc1ccc(-c2nc3ncccc3o2)cc1NC(=O)c1cccs1 | inactive: 6.08% | 
7 | Cc1ccc(-n2[nH]c(C)c(/C=N/N3C(=O)c4cccc5cccc(c45)C3=O)c2=O)cc1 | inactive: 8.85% | 
8 | COc1cc(C)ccc1OCCOCCOc1cccc2ccc(C)nc12 | inactive: 12.2% | 
9 | COc1ccc(CCNCC2C(Oc3ccc(Cl)cc3)C(=O)N2c2ccccc2C)cc1OC (centres undefined) | inactive: 19.4% | 
10 | Cc1ccc(NC(=O)Cc2nnc(N)s2)cc1 | inactive: 3.89% | 
11 | CCn1c(SCC(=O)Nc2cc(C)on2)nnc1-c1cccc(C)c1 | inactive: 11% | 
12 | CCn1c(CCC(=O)O)nc2cc(S(=O)(=O)N(C)C)ccc21 | inactive: 0.61% | 
13 | COc1cccc(N(CC(=O)NC2CCCCC2)C(=O)CCC(=O)Nc2nc(C)cs2)c1 | inactive: -1.48% | 
14 | CCOC(=O)c1ccc(S(=O)(=O)N2CC(=O)Nc3ccccc32)cc1 | inactive: 7.27% | 
15 | O=C(O)C1CCN(S(=O)(=O)c2ccc3c(c2)OCCCO3)CC1 | inactive: -7.53% | 
16 | COC(=O)CCN(C(=O)c1ccc(N2CCCC2)c([N+](=O)[O-])c1)c1ccccn1 | inactive: 10.9% | 
17 | CCCOc1ccc(Cc2c(Cl)nc(SC)nc2N(C)C)cc1 | inactive: 17% | 
18 | CCN1C(=O)c2ccc(C(=O)Nc3ccc(O)cc3C)cc2C1=O | inactive: -19.9% | 
19 | CC(Cc1c[nH]c2ccccc12)C(=O)NCc1ccco1 (centres undefined) | inactive: -6.61% | 
20 | S=c1[nH]cc(-c2ccccc2)n1-c1cccc(Cl)c1 | inactive: 7.5% | 
21 | CCCn1cc2c(c1-c1cccc(C)c1)c(=O)n(C)c(=O)n2C | inactive: -9.02% | 
22 | NC(=O)NC(Cc1ccccc1)C(=O)NCCCSc1ccccc1 (centres undefined) | inactive: -1% | 
23 | O=C(Oc1cccc2ccccc12)c1cc(Cl)nc2ccccc12 | inactive: 0.802% | 

Row | Structure (SMILES) | growth rescue (activation) | Potency
24 | COc1cccc(NC(=O)Cn2c(=O)n(CC(=O)NCCc3ccccc3)c(=O)c3sccc32)c1 | inactive: -5.29% | 
25 | O=C(NCC1CCCO1)c1ccccc1-c1nc(-c2ccccc2Cl)no1 (centres undefined) | inactive: 19.2% | 
26 | Cc1cc(N2CCOCC2)nc2ccc(NC(=O)CCC(=O)N3CCN(c4cccc(C(F)(F)F)c4)CC3)cc12 | inactive: -0.989% | 
27 | COc1ccc(Nc2nc3c(C)cccc3cc2C#N)c(OC)c1 | inactive: 13.4% | 
28 | O=C(COC(=O)C1(c2ccccc2F)CCCC1)N1CCc2ccccc21 | inactive: 6.21% | 
29 | CC(C1CC2CCC1C2)n1c(-c2cccs2)n[nH]c1=S (centres undefined) |  | active: 14.1 µM
30 | CC12CCC(C(=O)Nc3cccc(Cl)c3Cl)([C@H](Br)C1=O)C2(C)C (some centres undefined) | inactive: 7.55% | 
31 | C/C(=N\NC(=O)C1CCCN(S(=O)(=O)c2ccccc2)C1)c1cccnc1 (centres undefined) | inactive: -0.15% | 
32 | O=C(CCN1C(=O)c2cccc3cccc(c23)C1=O)N1CCN(c2ccccc2F)CC1 | inactive: -16.6% | 
33 | CC(C)c1onc(C(=O)N2CCCCCC2)c1[N+](=O)[O-] | inactive: 13% | 
34 | O=[N+]([O-])c1cccc(/C=N/n2cnnc2)c1 | inactive: 7.1% | 
35 | O=C(NC(=S)Nc1ccc2oc(-c3ccncc3)nc2c1)c1ccccc1F | inactive: -23.5% | 
36 | O=C(CSc1nc2[nH]c(=O)cc(O)c2s1)Nc1nncs1 | inactive: -2.5% | 
37 | Cc1ccc(CNC(=O)C2CCN(C(=O)c3cnn(-c4ccccc4)c3-n3cccc3)CC2)cc1 | inactive: 0.569% | 
38 | CCOCc1nnc(NC(=O)C2CC(=O)N(CCc3ccc(F)cc3)C2)s1 (centres undefined) | inactive: 7.09% | 
39 | CC(=O)NC(c1ccc(F)c(F)c1)c1nc(-c2cccs2)cs1 (centres undefined) | inactive: 22.5% | 
40 | CC(CN1CCCCC1)OC(=O)c1ccc(Cl)cc1 (centres undefined) | inactive: -12.5% | 
41 | O=C(CCNC(=O)c1ccccc1Cl)NN=Cc1ccccc1[N+](=O)[O-] | inactive: -8.33% | 
42 | Cc1cccc(OCC(=O)NCCCNC(=O)c2cccnc2)c1 | inactive: -2.76% | 
43 | CCCn1c(N)c(N2CCCCC2)c(=O)n(CC(=O)Nc2ccc(C(C)=O)cc2)c1=O | inactive: 20.5% | 
44 | CC(C)c1nnc(NC(=O)CSc2nc3ccccc3[nH]2)s1 | inactive: -3.66% | 
45 | CCn1c(Cc2ccccc2)nnc1SCC(=O)Nc1ccc2c(c1)OCO2 | inactive: 10.5% | 
46 | Cc1cccc(C(O)c2ncc(-c3ccccc3Cl)[nH]2)c1C (centres undefined) | inactive: 10.5% | 

Row | Structure (SMILES) | growth rescue (activation) | Potency
47 | O=C(NCc1ccco1)c1ccc2c(c1)N(Cc1ccc(Cl)cc1)CCS2 | inactive: -1.15% | 
48 | Clc1nnc(N2CCCCC2)c2ccccc12 | inactive: 11% | 
49 | COc1ccc(/C=C/C(=O)Nc2nonc2NC(C)=O)cc1 | inactive: 19.2% | 
50 | CC(C)NCC#CCOc1ccc(Cl)cc1 | inactive: -10.9% | 
51 | COCCSc1nnc(NC(=O)CS(=O)(=O)c2ccccc2)s1 | inactive: -1.93% | 
52 | Cc1ccc(C(=O)NC(=S)Nc2ccc(N3CCOCC3)cc2)c(C)c1 | inactive: 13.8% | 
53 | CC(=O)c1c(C)[nH]c(C(=O)Nc2cccc(S(=O)(=O)N3CCCC3)c2)c1C | inactive: 14.6% | 
54 | COc1ccc(S(=O)(=O)NC(C)C(=O)NCc2ccccn2)cc1Cl (centres undefined) | inactive: -1.17% | 
55 | COc1c(F)c(F)c(C(=O)O)c(Nc2cccc(C)c2)c1F | inactive: 6.02% | 
56 | Cc1ccc(N=C(N(C)C)P(=O)(N(C)C)N(C)C)c(C)c1 | inactive: 4.22% | 
57 | NC(=O)C1CCN(C(=O)c2ccc(F)c(S(=O)(=O)N3CCOCC3)c2)CC1 | inactive: 7.33% | 
58 | Cc1ccc(-c2nnc(SCC(=O)NC3CC3)o2)cc1 | inactive: 7.52% | 
59 | CC(C)COC(=O)n1c(=O)oc2ccc(S(=O)(=O)N3CCCCC3)cc21 | inactive: 31.4% | 
60 | Cc1ccc(S(=O)(=O)N2CCCC2C(=O)OCc2nc3ccccc3s2)cc1 (centres undefined) | inactive: -21.5% | 
61 | CC1CCCN(C2=C(NS(=O)(=O)c3ccc(Br)cc3)C(=O)c3ccccc3C2=O)C1 (centres undefined) | inactive: -16.4% | 
62 | NS(=O)(=O)c1cccc(NC(=O)CSc2nnc(-c3ccccc3F)n2C2CC2)c1 | inactive: 3.98% | 
63 | O=C(CSc1nnc(CNC(=O)c2c(F)cccc2Cl)o1)Nc1ccccc1 | inactive: -11.6% | 
64 | O=C1CN(c2nnnn2-c2ccccc2)CCN1 | inactive: -46.5% | 
65 | O=[N+]([O-])c1cnc2nc(-c3ccncc3)nn2c1O | inactive: 10% | 
66 | CCOC(=O)c1c(CN(C)C)n(C)c2ccc(OC(C)=O)cc12 | inactive: -1.47% | 
67 | CCN(CC)C1CC(=O)N(c2cccc(Cl)c2)C1=O (centres undefined) | inactive: -94% | 
68 | CCCOc1ccc(S(=O)(=O)N2C(=O)CC(=O)N(Cc3ccc(OCC)cc3)C2=O)cc1 | inactive: 22.3% | 
69 | Cc1cnc(C(=O)Nc2ccc(N3CCCCC3)cc2)cn1 | inactive: 1.97% | 
